Data from the supplement of paper PMC3334620.
The full ranking holds about 33,000 sequences; the median of “E-score (-0.5 to 0.5)” is about -0.054, and the highest 2% start at about 0.35. The list shows a part of the results.

biological target: T1, Stb5 (UniProt P38699); test: PBM E-score (8-mer binding enrichment) (E-score (-0.5 to 0.5)); higher = stronger / more preferred TF binding; most listed sequences are background and not binding sites; details: protein concentration: 200 nM; construct: GST-full length
T1 sequence: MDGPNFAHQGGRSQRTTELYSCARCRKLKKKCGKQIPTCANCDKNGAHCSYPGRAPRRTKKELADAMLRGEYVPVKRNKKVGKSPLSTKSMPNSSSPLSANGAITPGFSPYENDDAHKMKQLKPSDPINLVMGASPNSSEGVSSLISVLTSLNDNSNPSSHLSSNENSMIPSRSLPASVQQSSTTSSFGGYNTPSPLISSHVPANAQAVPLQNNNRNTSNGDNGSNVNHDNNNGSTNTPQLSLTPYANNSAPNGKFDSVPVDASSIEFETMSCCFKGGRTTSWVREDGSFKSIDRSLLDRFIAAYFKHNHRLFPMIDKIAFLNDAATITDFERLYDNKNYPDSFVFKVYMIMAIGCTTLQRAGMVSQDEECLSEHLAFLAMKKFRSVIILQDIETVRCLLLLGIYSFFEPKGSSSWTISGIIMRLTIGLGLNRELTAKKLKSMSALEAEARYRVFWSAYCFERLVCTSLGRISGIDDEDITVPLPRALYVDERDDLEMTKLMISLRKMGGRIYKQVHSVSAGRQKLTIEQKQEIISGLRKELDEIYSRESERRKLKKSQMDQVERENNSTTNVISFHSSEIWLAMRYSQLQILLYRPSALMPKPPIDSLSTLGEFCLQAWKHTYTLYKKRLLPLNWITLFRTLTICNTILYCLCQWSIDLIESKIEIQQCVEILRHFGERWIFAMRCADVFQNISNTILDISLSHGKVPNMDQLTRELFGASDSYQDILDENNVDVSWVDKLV
In short: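 Yeast transcription factors carrying a GST tag, as full-length proteins or DNA-binding domains, were produced by PURExpress in vitro transcription/translation. About 100-200 nM protein was applied to universal all-10-mer Agilent arrays, double-stranded by primer extension on fresh or once-stripped slides. Bound protein was detected with fluorescent anti-GST, and scans were normalised with masliner. The Universal PBM Analysis Suite gave each ungapped eight-base word, pooled with its reverse complement, an E-score, a modified Wilcoxon-Mann-Whitney statistic.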

Sequence	PBM E-score
ACGATTTC	-0.0531
CAGCGGGA	0.264
ATCAAGTC	-0.0649
AGTCTCTG	-0.249
ACACACCG	0.372
ACTTTTGC	-0.163
GTACCTAC	-0.125
CTCACCGA	0.248
ACCTGTTA	-0.171
AGACTAGC	-0.395
CTAGCGTA	0.0784
AAGTTGCT	-0.227
CGCACTGA	0.0114
ACAGGACA	-0.0122
ACCCGCCG	0.318
GCTAAGGA	-0.245
TACGAATA	-0.152
CGACAGCG	0.254
ACACCCAA	-0.1
AGTATCGA	-0.0858
GGACACTA	0.0456
AGGCATTG	-0.0462
AATCGAGC	-0.152
CTGACGGA	0.198
ACACCAAG	-0.187

Sequence	PBM E-score
CCAAGGGA	-0.228
CCGCGTAC	0.129
AACTTCTG	-0.109
ACCGACGC	0.306
CCTTCACA	-0.239
CACGGCGA	0.162
GATGTATA	0.11
ACTACTCC	0.199
TCCTGGAA	-0.17
CCCACACC	-0.147
GGTGTTCA	0.231
AGGTGACC	-0.212
AGCAGCAT	-0.152
CGAGCTGA	-0.0653
CGACTGCC	-0.0292
ATTAAACG	-0.0501
GACCTTCA	-0.0115
ACAGCTCG	-0.163
CTAGTAAA	0.013
ACAGGCGA	-0.213
ACGAAAAC	-0.081
CTGGCTTC	-0.238
CTATCGTC	-0.135
ATCCCAAC	-0.19
CAAAACTG	0.0108

Sequence	PBM E-score
AAGCGGCT	0.169
AAAGTCGT	-0.217
TATGGGGA	-0.0774
AAGGACGT	-0.206
ACATGCCG	0.236
ATCATAGA	-0.0223
TAGCGCTA	0.252
ATCGGTAC	0.303
ATGTTGGC	0.0534
AAGTGACC	-0.109
CGAAGGCA	-0.121
CGCGTCAC	-0.194
CTCTTGGC	-0.232
CCTTTGAC	-0.15
GAAGCTGC	-0.103
CCAACTTA	-0.0503
ATTTCAGG	-0.101
GCCATTGA	0.0433
AAGACTAA	-0.0277
AATGTGAG	-0.126
GTTTAAAA	0.111
ATGTCACA	-0.254
TGATGGAA	-0.079
AGAATGCG	0.0356
AGCAGCCG	-0.128

Sequence	PBM E-score
ATCTCGCA	-0.049
TCAGCCAA	-0.23
GCGATAAA	0.0533
CGGCGAGC	0.0148
ACTGGGAG	-0.112
AGAGCCCT	-0.338
TGACGGAA	0.168
AGGCACTG	-0.388
CGAAGACA	0.0655
CCTGCAAG	-0.179
GCAAATTA	0.0963
CCACTGGC	-0.135
AACGCGCT	0.0979
AAGTTGCC	-0.0222
AAGGCTCA	-0.21
ATGGCCCG	0.132
ACATCATG	-0.102
TACTCTAA	-0.0253
AGGGGTCA	-0.181
CATTCGTA	-0.256
GCTGACAC	0.044
CAGGCGAA	-0.257
AGCGGGGG	0.277
AATAGTAA	-0.155
AGTTCTTC	-0.213

Sequence	PBM E-score
ATCTTTTG	-0.0814
ACTACACG	-0.139
CGCTTCAA	0.00623
GCGCTTTA	0.115
CCTTTCGA	-0.0952
CACGGCTA	0.0563
ACTAGCTA	-0.195
AGGGCTAA	0.124
ACGAGAGC	-0.238
TCGGACCA	0.214
CTATGACC	0.143
GCGAGATA	0.0446
AACTATCG	0.0925
GACTAGGA	-0.106
AGTTACTA	-0.107
CGATCAAG	0.0257
GAGCAACA	0.0193
CTGGCCTA	-0.172
CAAGAGTC	-0.114
ACATTCTG	-0.223
CCCAGATC	-0.089
GTTTGTAA	0.0105
ATGGAAAC	-0.0713
CAGACAAA	-0.223
CACTGGGG	-0.164

Sequence	PBM E-score
ATACCCGG	0.239
GCATAACC	0.0353
GCGTCGTA	0.109
CCTGCAGA	0.0696
CACAATGC	-0.0146
AACCGCCC	0.107
ATGAATCG	0.0204
GAAAGCAC	-0.0257
AGCGGGAC	0.303
GATTACGA	-0.089
GCAGTGGA	-0.276
ACACTTAG	-0.035
GATGGAGC	-0.0679
GACTGCCC	-0.241
AAGGCTAA	-0.149
CGAGTTAG	-0.0646
GACAGGGA	-0.195
AAAGCGTT	-0.145
CCCGTAGG	0.133
GGCACCCA	-0.036
CTACACAA	-0.192
ATAGCCGG	0.373
CCTCCATA	-0.00496
CGCTCCCA	0.0448
CCTAACTA	0.0195

Sequence	PBM E-score
TCGGGCAA	0.102
GTTGCGAA	-0.289
GTCGGTAA	0.32
AGACAGCG	0.165
CGCACGGC	0.178
ATATAAAC	0.143
AGTCGGCC	0.323
GGGTTTAA	0.398
CTTACCAC	-0.0644
GAGGAATC	-0.107
AATACAAC	-0.0247
AATAACCA	-0.178
ATGATTAC	0.0188
AGCCAGTA	-0.203
AAATAAAA	0.108
ACATTCAG	-0.083
TAGATATA	0.0276
AACGATGC	-0.174
ATGTTGAA	-0.0618
CTCAATGC	-0.0189
AGTTTCAA	-0.133
AAACGAGT	-0.0471
AGCTCCTC	-0.184
CCGTGCCC	0.177
TCCACGAA	-0.0585

Sequence	PBM E-score
GACATTAA	0.17
CCCCACGA	-0.124
CATGAGGA	-0.0503
CGACTTGC	-0.071
TACAGCTA	-0.121
ACGCAAAT	0.0568
CGTGAAAC	-0.0554
GTGAGGAA	-0.0135
ACAATGAT	-0.194
AAGATCCA	-0.0416
CTTTCTTA	-0.0519
GTTCAATA	-0.0103
CTTCCGGA	0.209
GCGTAATA	-0.0481
AGTACGCG	-0.124
GACTCGGC	-0.0915
GAATAGTC	-0.0467
TATCCCCA	0.137
CACTCCAA	-0.0396
ATAGCTCC	0.307
CAAAAGTC	-0.00605
ATGGGAAA	-0.302
GTGTCTTA	-0.0737
ACCATAGT	-0.0253
GCTATACA	0.069

Sequence	PBM E-score
GTAAACAA	-0.0333
CGCCATCC	0.0869
GCTTACGA	-0.183
GTAATAGA	-0.0887
ATTCTAAC	-0.0956
AAAGAAAA	0.0994
CGTCTCAA	0.0236
CCCCTTAC	-0.135
AATTTACA	-0.26
AGTATACG	-0.104
ATAACATC	0.14
ACTACGCC	-0.0766
CAATAGCA	-0.0614
GGAAAGAA	-0.0287
ATGGTATA	-0.0447
TGGCGCCA	0.0517
ACTGGGTC	-0.15
CCTGGGAC	-0.284
CGGGGTCA	0.441
TGCGCCAA	-0.0016
AACCTCTG	-0.105
CCCTCCCA	2e-05
AACAAGTA	-0.216
AATGCACT	-0.224
TACAAGCA	-0.0168

Sequence	PBM E-score
CCATTGTA	0.00712
TGCCGACA	0.298
ACGTATAT	-0.0179
CCCGAAAC	0.049
ATCTGGTC	-0.153
GACAAACA	0.0621
TGATGCAA	-0.0456
ACCCGGAA	0.214
CAAAATTC	0.153
CATCCCCG	0.264
CTGAAGGC	-0.0853
GTCTAGAA	0.0572
TATTTAGA	0.103
ATGATAGC	0.0851
AAGAATTA	-0.0159
GAAAGTCA	-0.148
AAAGCCCA	0.0226
CGACCTCG	0.0652
ACAATAAT	-0.0887
ACTGAAGC	-0.111
CACTCCTG	-0.218
TCACGAGA	-0.299
GCACCAGA	-0.129
CCGCTTTC	0.243
AGCCGCAA	-0.00405

Sequence	PBM E-score
GGGCTTCA	-0.0612
CAAACGCG	0.0779
ATAGTCAG	-0.222
AACGCGAC	-0.173
ATTACCTC	0.0374
GCGTTAGA	0.115
AATTAACG	-0.0564
ATGCAAAG	-0.0333
CGTGTGTC	0.152
ATGCTTCG	0.0216
ACGTTTAG	-0.231
GCCAATTA	-0.194
ACAGGATC	-0.312
CTCACGTC	-0.122
GAAACGAA	-0.0793
AAAATATG	-0.097
CGGGACTA	0.451
CCCAATTA	-0.0602
GAAGTGAC	-0.0109
CCACATGA	-0.208
CGAAGGGC	0.00778
GGATGCGA	-0.00405
CTTATCAC	-0.157
ACCCTATA	-0.29
ATTCCATC	-0.122

Sequence	PBM E-score
AGGAAACT	-0.203
CGGGCGGA	0.359
AAAGATAA	-0.115
GGCCTTAC	0.248
CAGGACCG	0.173
CTACAGGA	-0.00469
CGGGCTCC	0.0609
AAATGATC	-0.138
CCAACAGG	-0.214
CTATATAC	0.041
CCCGTTCA	0.206
ACCTGATA	0.0218
TTGACAAA	-0.102
AAAGGGGG	-0.11
GGTACTAA	0.306
ACAATCGT	-0.257
GTGGCTAA	-0.0732
CCAAGCGG	0.228
ACGATCCC	-0.0871
AGAGCAAG	-0.13
ACACGAGT	-0.0819
GGCCACCA	-0.252
GCGGTATA	0.28
CGTCCATA	0.0932
CGGAATTA	0.417

Sequence	PBM E-score
ATTGCAAG	-0.375
AAGGCTAT	0.00504
CATGTGGC	-0.0206
CCCGAAAG	0.17
AGGCAGAA	0.0356
AGATCACA	-0.0286
CTAGCCGC	-0.0169
CCACTTAC	0.0896
AGAGATCC	-0.0189
ACTACAAT	-0.0293
GGCGCGCC	0.149
AGGCATCC	-0.261
ATAACACG	-0.0233
ATTTCCCA	-0.308
GGAAGTTA	0.0793
AATCAAAC	-0.0315
CCCCCCGG	0.0942
GGTTCATA	-0.09
CTGTGAAG	-0.136
CGAACAGC	-0.0162
CCTGTTAC	-0.0548
CCCTGTGA	-0.223
CGATCTAC	-0.118
GTTGCTAA	0.0236
AGACCAAG	-0.116

Sequence	PBM E-score
ACCGGTAC	0.397
GAATGCAA	-0.0267
TGGAGGAA	-0.205
CGATAAGC	0.113
AGATAGGG	-0.136
CGATTCTA	0.037
CTGCCAAA	-0.0948
CTACCGCC	0.305
AAAAGTCC	0.347
AAGAAGGT	-0.0403
AGTCCACT	-0.226
AAGAACGG	0.249
AGAAGGCC	0.152
AAGTCATC	-0.283
CCTTAGCC	-0.0579
TCTAAAGA	-0.133
ACGGGCAC	0.105
AACCTTAT	-0.107
AACGGATA	0.244
